Key:
Assay in all cases: HN12b in combination with efflux pump inhibitors (CB method, FICI)
[1] = system: K. planticola (MTCC 2272); conditions: HN12b + PAβN
Experimental: (§1) The fractional inhibitory concentration index (FICI) was calculated for each antibiotic in each combination by using the following formula: FICA+FICB=FICI, where FICA equals the MIC of drug A in combination divided by the MIC of drug A alone and FICB equals the MIC of drug B in combination divided by the MIC of drug B alone. The FICIs were interpreted as follows: FICI of ≤0.5 will correspond to synergy; FICI of >0.5 to ≤1 will correspond to additivity; FICI of >1 to ≤4 will correspond to no interaction (indifference), and FICI of >4 will correspond antagonism.

P. aeruginosa (MTCC1688) = conditions: HN12b + PAβN
Experimental: as §1

E. coli KK45 = conditions: HN12b + PAβN
Experimental: as §1

Enterococcus sp. (1121) = conditions: HN12b + PAβN
Experimental: as §1

P. aeruginosa (Ps 366) = conditions: HN12b + PAβN
Experimental: as §1

A. baumannii (MTCC1920) = conditions: HN12b + PAβN
Experimental: as §1

K. planticola (1164) = conditions: HN12b + PAβN
Experimental: as §1

[2] = system: Providencia sp. (MTCC 2102)
Experimental: as §1

Providencia sp. (P592) = conditions: HN12b + CCCP
Experimental: as §1

Enterococcus sp. (2105) = conditions: HN12b + PAβN
Experimental: as §1

CCCN1CCN(c2nc3ccc(-c4nc5ccccc5[nH]4)cc3[nH]2)CC1 [HN12b, 2′-(4-propylpiperazine-1-yl)-1H, 3′H-2,5′-bibenzimidazole]
Interpretation [1]: Additive (FICI of >0.5 to ≤1 will correspond to additivity) | Interpretation (P. aeruginosa (MTCC1688)): Additive (FICI of >0.5 to ≤1 will correspond to additivity) | Interpretation (E. coli KK45): Additive (FICI of >0.5 to ≤1 will correspond to additivity) | Interpretation (Enterococcus sp. (1121)): Additive (FICI of >0.5 to ≤1 will correspond to additivity) | Interpretation (P. aeruginosa (Ps 366)): Additive (FICI of >0.5 to ≤1 will correspond to additivity) | Interpretation (A. baumannii (MTCC1920)): Additive (FICI of >0.5 to ≤1 will correspond to additivity) | Interpretation (K. planticola (1164)): Additive (FICI of >0.5 to ≤1 will correspond to additivity) | Interpretation ([2]; HN12b + CCCP): Additive (FICI of >0.5 to ≤1 will correspond to additivity) | Interpretation ([2]; HN12b + PAβN): Additive (FICI of >0.5 to ≤1 will correspond to additivity) | Interpretation (Providencia sp. (P592)): Additive (FICI of >0.5 to ≤1 will correspond to additivity) | Interpretation (Enterococcus sp. (2105)): Additive (FICI of >0.5 to ≤1 will correspond to additivity)

Reference: US11434227B2, “Broad spectrum antibacterial activity of novel bisbenzimidazoles targeting topoisomerase IA and the synergistic composition of bisbenzimidazole with efflux pump inhibitors against pathogenic bacteria” (Jawaharlal Nehru University (JNU), priority 2016, dated 2022)
